Source: the antibiotic and cytotoxicity screens of Wong et al. (2023)
This is one part of the list.

Assays:
[1] = test system: HSkMC (human skeletal muscle cells); test: cytotoxicity call (relative viability < 0.9); conditions: 10 µM
[2] = test system: HepG2; test: cytotoxicity call (relative viability < 0.9); conditions: 10 µM
[3] = test system: S. aureus RN4220; test: growth inhibition call (relative growth <= 0.2); conditions: 50 µM

C[C@H]1CN([C@@H](C)CO)C(=O)c2cc(NC(=O)c3ccncc3)ccc2O[C@H]1CN(C)Cc1ccc(-c2ccccc2)cc1
inactive: cytotoxicity call [1] | cytotoxicity call [2] | growth inhibition call [3]

C1CCN2CC3CC(CN4CCCCC34)C2C1.O=S(=O)(O)O (stereo unspecified)
inactive: cytotoxicity call [1] | cytotoxicity call [2] | growth inhibition call [3]

COCC#Cc1ccc2c(c1)O[C@H](CN(C)C(=O)COC)[C@@H](C)CN([C@@H](C)CO)S2(=O)=O
inactive: cytotoxicity call [1] | cytotoxicity call [2] | growth inhibition call [3]

COCC(=O)Nc1ccc2c(c1)OC[C@H](C)N(Cc1ccccc1OC)C[C@H](C)[C@@H](OC)CN(C)C2=O
inactive: cytotoxicity call [1] | cytotoxicity call [2] | growth inhibition call [3]

Cc1noc(C)c1S(=O)(=O)Nc1ccc2c(c1)CC(=O)N([C@@H](C)CO)C[C@H](C)[C@H](CN(C)Cc1ccccc1)O2
inactive: cytotoxicity call [1] | cytotoxicity call [2] | growth inhibition call [3]

Cc1ccc(S(=O)(=O)Nc2ccc3c(c2)C(=O)N([C@@H](C)CO)C[C@H](C)[C@@H](CN(C)S(C)(=O)=O)OCCCC[C@@H](C)O3)cc1
inactive: cytotoxicity call [1] | cytotoxicity call [2] | growth inhibition call [3]

C[C@H]1CN([C@@H](C)CO)C(=O)c2cc(C#CCN(C)C)cnc2O[C@H]1CN(C)C(=O)CCN1CCCCC1
inactive: cytotoxicity call [1] | cytotoxicity call [2] | growth inhibition call [3]
